{
  "source": "PubChem BioAssay AID1625",
  "about": "(Sanford-Burnham Center for Chemical Genomics, 2009)",
  "note": "This is one part of the list. Shown are side measurements of this screen, not its main read-out; they come without a call. Compounds called inactive in the main read-out are mostly missing here.",
  "data": [
    {"assay": "up-regulation of insulin promoter-GFP reporter – imaging, high-content screening, mouse beta cells (AID 1625);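 note: total cells summed across four imaged fields per well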", "settings": "MIN6 insulin promoter-GFP reporter, measured here: cytotoxicity, nuclei count, at 5 µM", "units": {"cell count": "cells"}, "values": [
      {"smiles": "C[C@H]1C[C@@H](C)C(=O)[C@@H]([C@H](O)CC2CC(=O)NC(=O)C2)C1", "cell count": 340},
      {"smiles": "CN(C)c1ccc(/C=C/c2cc[n+](C)c3ccccc23)cc1", "cell count": 352},
      {"smiles": "CN1C2CCC1/C(=C/c1ccccn1)C(=O)/C2=C\\c1ccccn1", "cell count": 253},
      {"smiles": "CCN(CC)c1ccc(/C=N/c2sc3c(c2C#N)C2CCN3CC2)c(O)c1", "cell count": 1180},
      {"smiles": "O=[N+]([O-])c1ccc(NCc2ccccc2)c2nonc12", "cell count": 1220},
      {"smiles": "CCc1ccccc1N1C(=O)/C(=C/c2ccc(N3CCN(C)CC3)o2)C(=O)NC1=S", "cell count": 1240},
      {"smiles": "Clc1ccc2c(c1)C(OC1CN3CCC1CC3)c1ccccc1CS2", "note": "(stereo not given)", "cell count": 415},
      {"smiles": "CC1(C)CN=C(Nc2ccc(F)c(F)c2)S1", "cell count": 289},
      {"smiles": "CCOc1cccc(=NC2CCCCC2)c2c(C)n(C)c(C)c12", "cell count": 279},
      {"smiles": "CC1(C)C[C@H]2C=C(C=O)[C@]3(C=O)C[C@]3(C)[C@H]2C1", "cell count": 479},
      {"smiles": "COc1cc([C@@H]2c3cc4c(cc3[C@@H](OC)[C@H]3COC(=O)[C@H]23)OCO4)cc(OC)c1O", "cell count": 480},
      {"smiles": "O=c1[nH]c(=O)n(-c2ccc(F)cc2)c(O)c1C=Nc1ccccc1N1CCCC1", "cell count": 1430},
      {"smiles": "CCOc1ccc(-c2cc(C)[n+](CCO)c(-c3ccc(OCC)cc3)c2)cc1", "cell count": 474},
      {"smiles": "CN1CCN(c2ccc(/C=C3\\C(=O)NC(=S)N(c4cccc(Br)c4)C3=O)o2)CC1", "cell count": 1230},
      {"smiles": "CN1CCN(c2ccc([N+](=O)[O-])c3no[n+]([O-])c23)CC1", "cell count": 243},
      {"smiles": "CCOC(=O)c1c(C)n(Cc2ccccc2)c2ccc(OCC(O)Cn3nc(C)cc3C)cc12", "note": "(stereo not given)", "cell count": 387},
      {"smiles": "CCC(=NCc1ccc(F)cc1)c1c(O)n(C)c(=O)n(C)c1=O", "cell count": 315},
      {"smiles": "c1ccc2c(N3CCNCC3)nsc2c1", "cell count": 1070},
      {"smiles": "CCOc1cccc(=NC2CCCCC2)c2c(C)[nH]c(C)c12", "cell count": 189},
      {"smiles": "O=C1NC(=S)NC(=O)C1=Cc1cccc2cc3ccccc3cc12", "cell count": 489},
      {"smiles": "CC[n+]1c(/C=C/C=C/c2ccc(N(C)C)cc2)sc2ccccc21", "cell count": 208},
      {"smiles": "O=C(c1ccccc1)C(CN1CCCC1)c1ccccc1", "note": "(stereo not given)", "cell count": 412},
      {"smiles": "Cc1ccc(-c2cc(-c3ccc(C)cc3)[n+](C)o2)cc1", "cell count": 263},
      {"smiles": "COC(=O)C[C@]1(C(=O)OC)CN(C#N)N(c2ccc(Cl)cc2)C12c1ccccc1-c1ccccc12", "cell count": 355},
      {"smiles": "C=C(C=O)CC1CC(O)[C@]2(C)OC3CC4OC5C[C@]6(C)O[C@]7(C)CCC8OC9C[C@]%10(C)OC%11C(C)=CC(=O)OC%11CC%10OC9C[C@@H](C)C8OC7CC6O[C@]5(C)CC5OC5C4OC3CC2O1", "note": "(stereo not given in full)", "cell count": 151},
      {"smiles": "CN1/C(=C\\C=C2C(=O)NC(=S)NC2=O)C(C)(C)c2ccccc21", "cell count": 1320},
      {"smiles": "CC1CCC(C(C)C)C(OC(=O)Cn2c(COc3ccccc3)[n+](C)c3ccccc32)C1", "note": "(stereo not given)", "cell count": 401},
      {"smiles": "CCN1/C(=C\\C=C\\C2=[N+](CC)c3ccccc3C2(C)C)C(C)(C)c2ccccc21", "cell count": 278},
      {"smiles": "CCCCCCCn1c(=O)c(C(=O)Nc2cnccn2)c(O)c2ccccc21", "cell count": 424},
      {"smiles": "Cn1ncnc2c(=O)n(C)c(=O)nc1-2", "cell count": 227},
      {"smiles": "CN(C)C(=S)SSC(=S)N(C)C", "cell count": 459},
      {"smiles": "Cc1ccc(C(=O)N[C@@H](C)CN2C3=NC[C@H](Cc4ccccc4)N3C[C@H]2Cc2ccc(O)cc2)cc1Br", "cell count": 473},
      {"smiles": "CC1CCC/C=C/C2CC(O)CC2C(O)/C=C/C(=O)O1", "note": "(stereo not given)", "cell count": 296},
      {"smiles": "Cc1nc2c(=O)n(C)c(=O)nc-2n(C)n1", "cell count": 489},
      {"smiles": "O=C1C(=O)c2ccccc2-c2ccccc21", "cell count": 262},
      {"smiles": "C=CCN1C(=O)/C(=C/c2ccc(N3CCOCC3)o2)C(=O)NC1=S", "cell count": 1230},
      {"smiles": "CN(C)c1ccc(/C=C/C=C/c2sc3ccccc3[n+]2C)cc1", "cell count": 310},
      {"smiles": "CC/C(=C\\C=C\\[C@@H]1C=C[C@@H]2CCC[C@H]2[C@@H]1C(=O)c1ccc[nH]1)[C@@H]1O[C@@H]([C@@H](C)C(=O)O)CC[C@@H]1C", "cell count": 455},
      {"smiles": "CCCCc1ccc2[nH]cc(CCN)c2c1", "cell count": 1150},
      {"smiles": "CCCCCCCCCCCCn1ccc(=N)cc1", "cell count": 202}
    ]}
  ]
}
